Measured values reported in US20240376196A1 (HEFEI TG IMMUNOPHARMA, published 2024).

Assays:
[1] = biological target: T1, CD112 (antigen of the Biacore assay) (UniProt Q92692 32-360, limits assumed); test: Biacore 8K SPR, antibody captured on protein A chip, antigen as analyte
T1 construct: also called CD112 protein; the antigen
T1 sequence (looked up): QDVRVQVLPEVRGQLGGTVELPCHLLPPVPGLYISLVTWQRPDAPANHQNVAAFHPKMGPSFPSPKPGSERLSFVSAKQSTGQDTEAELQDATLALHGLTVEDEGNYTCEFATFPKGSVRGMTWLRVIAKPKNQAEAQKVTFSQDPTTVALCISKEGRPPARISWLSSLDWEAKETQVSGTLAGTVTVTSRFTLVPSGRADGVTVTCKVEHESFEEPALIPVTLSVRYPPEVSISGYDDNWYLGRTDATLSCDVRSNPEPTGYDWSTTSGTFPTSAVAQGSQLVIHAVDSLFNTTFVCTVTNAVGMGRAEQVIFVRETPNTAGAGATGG

[2] = biological target: T2, CD112 on tumor cells (A-375, A-549, MDA-MB-231) (UniProt Q92692 32-538, limits assumed); test: flow cytometry on MDA-MB-231 cells, Alexa-647 anti-human IgG, % Binding ratio
T2 construct: whole, on cells
T2 sequence (looked up): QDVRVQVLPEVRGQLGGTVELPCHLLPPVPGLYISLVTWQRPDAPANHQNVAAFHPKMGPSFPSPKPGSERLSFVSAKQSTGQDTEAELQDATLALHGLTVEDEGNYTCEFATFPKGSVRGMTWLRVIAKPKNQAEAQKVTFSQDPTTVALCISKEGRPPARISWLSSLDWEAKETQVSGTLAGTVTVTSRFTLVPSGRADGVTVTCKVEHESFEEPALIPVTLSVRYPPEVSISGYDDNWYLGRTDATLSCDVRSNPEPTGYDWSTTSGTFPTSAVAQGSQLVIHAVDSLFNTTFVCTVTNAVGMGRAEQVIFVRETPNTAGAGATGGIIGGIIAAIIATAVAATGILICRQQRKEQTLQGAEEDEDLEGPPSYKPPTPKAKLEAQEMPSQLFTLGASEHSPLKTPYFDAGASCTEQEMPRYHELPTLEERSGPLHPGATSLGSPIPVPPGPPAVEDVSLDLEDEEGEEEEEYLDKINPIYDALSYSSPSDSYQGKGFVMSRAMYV

[3] = biological target: T2, CD112 on tumor cells (A-375, A-549, …); test: flow cytometry on A-375 cells, Alexa-647 anti-human IgG, MFI
[4] = biological target: T2, CD112 on tumor cells (A-375, A-549, …); test: flow cytometry on MDA-MB-231 cells, Alexa-647 anti-human IgG, MFI
[5] = biological target: T2, CD112 on tumor cells (A-375, A-549, …); test: flow cytometry on A-375 cells, Alexa-647 anti-human IgG, % Binding ratio

B1: humanized antibody h9G11-hIgG1 (antibody)
heavy: EVQLVESGGGLVQPGGSLRLSCAASGFTFSSYYMSWVRQAPGKRLELVAAINSQGGSTYYPDTVKGRFTISRDNAKNTLYLQMNSLRAEDTAVYYCARSDYDWAWFAYWGQGTLVTVSS[omitted - human IgG1 constant region]
light: DIVMTQSPSSLAVSLGERATINCKSSQSLLYSSNQKNYLAWYQQKPGQPPKLLIYWASTRESGVPDRFSGSGSGTDFTLTISSLQAEDVAVYYCQQYYRYPPTFGGGTKLEIKRTVAAPSVFIFPPSDEQLKSGTASVVCLLNNFYPREAKVQWKVDNALQSGNSQESVTEQDSKDSTYSLSSTLTLSKADYEKHKVYACEVTHQGLSSPVTKSFNRGEC
notes: also called parental antibody h9G11; parent humanized antibody h9G11
[1]
  Kd: 51.4 nM
[2]
  EC50 (read off the curve): ~0.01 µg/mL
[3]
  EC50 (read off the curve): ~0.2 µg/mL
[4]
  EC50 (read off the curve): ~0.2 µg/mL
[5]
  EC50 (read off the curve): ~0.02 µg/mL
